PubChem BioAssay AID1347165 (National Center for Advancing Translational Sciences (NCATS), 2019)
Screen size: about 220,000 compounds; about 5,700 (2.6%) were called active. The shares of active, inactive and inconclusive entries below differ from those in the screen. The call rests on the fitted dose curve; in most records, active means well fitted inhibition curve with a large enough effect; inconclusive means small, poorly fitted or top-dose-only effect; inactive means no such curve, though single readings can be large or run the other way. A potency beside an inconclusive call is a rough fit, not a confirmed value.

Each compound was assayed against Lysine-specific demethylase 5B (Homo sapiens) (UniProt Q9UGL1) (assay: Primary screen for KDM5B Histone Demethylases FDH-coupled qHTS). Details: FDH-coupled NADH fluorescence (FDH is formaldehyde dehydrogenase); series mostly up to 57.7 µM.
Chain of UniProt Q9UGL1 (Q9UGL1 whole entry, looked up): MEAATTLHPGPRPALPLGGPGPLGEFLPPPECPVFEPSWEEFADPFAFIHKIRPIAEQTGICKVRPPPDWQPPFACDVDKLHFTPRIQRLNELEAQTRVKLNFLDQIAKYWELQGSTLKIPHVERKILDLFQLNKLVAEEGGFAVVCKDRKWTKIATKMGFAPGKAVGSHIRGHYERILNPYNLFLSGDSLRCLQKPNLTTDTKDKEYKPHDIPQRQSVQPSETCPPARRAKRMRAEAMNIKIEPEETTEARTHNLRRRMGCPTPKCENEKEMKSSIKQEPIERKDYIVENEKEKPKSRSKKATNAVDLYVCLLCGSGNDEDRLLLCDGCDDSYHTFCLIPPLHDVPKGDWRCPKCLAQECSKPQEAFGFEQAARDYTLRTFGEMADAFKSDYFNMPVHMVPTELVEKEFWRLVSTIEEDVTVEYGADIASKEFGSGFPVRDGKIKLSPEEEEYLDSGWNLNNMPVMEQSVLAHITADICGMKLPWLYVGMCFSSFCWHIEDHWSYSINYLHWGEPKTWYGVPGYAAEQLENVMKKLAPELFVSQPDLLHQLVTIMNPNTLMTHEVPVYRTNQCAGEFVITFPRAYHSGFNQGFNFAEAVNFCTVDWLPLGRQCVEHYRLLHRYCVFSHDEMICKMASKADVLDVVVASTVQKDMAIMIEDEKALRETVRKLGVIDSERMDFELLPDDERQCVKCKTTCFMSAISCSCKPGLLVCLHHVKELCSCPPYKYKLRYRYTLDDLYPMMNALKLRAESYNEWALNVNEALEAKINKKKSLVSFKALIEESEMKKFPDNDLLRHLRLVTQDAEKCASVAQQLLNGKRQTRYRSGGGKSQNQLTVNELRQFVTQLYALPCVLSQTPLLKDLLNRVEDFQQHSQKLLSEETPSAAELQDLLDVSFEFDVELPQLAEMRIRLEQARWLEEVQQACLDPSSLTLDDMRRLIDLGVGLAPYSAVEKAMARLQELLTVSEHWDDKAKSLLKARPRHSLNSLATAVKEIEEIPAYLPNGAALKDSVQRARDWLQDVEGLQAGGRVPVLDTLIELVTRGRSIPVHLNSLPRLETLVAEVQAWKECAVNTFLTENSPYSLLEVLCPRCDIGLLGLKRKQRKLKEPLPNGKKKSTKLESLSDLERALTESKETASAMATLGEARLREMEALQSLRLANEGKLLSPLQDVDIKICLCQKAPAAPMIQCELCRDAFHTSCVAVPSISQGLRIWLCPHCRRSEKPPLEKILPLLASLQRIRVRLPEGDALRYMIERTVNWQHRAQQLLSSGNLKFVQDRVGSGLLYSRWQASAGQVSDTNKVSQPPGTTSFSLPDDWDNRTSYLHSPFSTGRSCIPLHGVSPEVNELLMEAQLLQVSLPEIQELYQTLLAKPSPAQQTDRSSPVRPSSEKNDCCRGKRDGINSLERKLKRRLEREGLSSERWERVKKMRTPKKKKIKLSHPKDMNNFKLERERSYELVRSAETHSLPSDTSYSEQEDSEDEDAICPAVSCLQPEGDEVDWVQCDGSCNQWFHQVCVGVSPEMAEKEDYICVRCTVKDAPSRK
In short: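 Measured: NADH fluorescence change, 30 min, RT. System: KDM5BΔAP 200 nM final, H3K4me3 peptide, α-KG, Fe(II), ascorbate, NAD⁺ plus FDH, pH 7.5 HEPES. Compounds: titrated, 10 min pre-incubation with enzyme.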
Further: nearly all actives have a fitted effect of over 70% in size.
Potency means the concentration at half of the fitted maximal effect; tags describe the fitted curve by direction and shape.

| SMILES | Potency |
| --- | --- |
| CC(=O)NC1(C)CCN(Cc2cccc(-c3ccc(N4CCOCC4)cc3)c2)C1 (configuration not stated) | active: 31.6 µM |
| CCCc1noc(-c2ccn3c(CNC(=O)Cc4cccc(OC)c4)nnc3c2)n1 | inconclusive: 35.5 µM [inhibitor, partial curve, poor fit] |
| CCOCCn1ccc2c(OCC(=O)Nc3ccc(C(N)=O)cc3)cccc2c1=O | inconclusive: 31.6 µM [inhibitor, single point] |
| O=C(C1=Cc2cc(Cl)ccc2OC1)N1CCN(S(=O)(=O)c2ccc(F)cc2)CC1 | inactive |
| COc1ccc(CCCN2C(=O)O[C@@H]3CN(c4nc(C)cc(C)n4)C[C@@H]32)cc1 | inactive |
| COc1ccc(S(=O)(=O)Nc2ccccc2Cl)cc1NC(=O)c1cccc(-n2cccc2)c1 | inconclusive: 28.2 µM [inhibitor, single point] |
| Cc1oc(-c2cccs2)nc1C(=O)N1CCOCC1C (configuration not stated) | inconclusive: 39.8 µM [inhibitor, single point] |
| O=S(=O)(NCc1csc(-c2cccs2)n1)c1ccccc1 | inconclusive: 35.5 µM [inhibitor, single point] |
| Cc1ccc(C)c(NC(=O)CN2CCSc3ccc(S(=O)(=O)N4CCCC4)cc32)c1 | inconclusive: 28.2 µM [inhibitor, partial curve, poor fit] |
| Cc1nn(CCO)cc1CN1CCN(C(=O)c2ccoc2)CC(O)C1 (configuration not stated) | inconclusive: 6.31 µM [inhibitor, partial curve, poor fit] |
| Cc1cc(C(=O)N2CCCC(O)(CN3CCCC3)C2)ccc1Cl (configuration not stated) | inconclusive: 35.5 µM [inhibitor, partial curve, poor fit] |
| COc1ccccc1-c1ncc2c(n1)OCCN(c1cccc(C(F)(F)F)c1)C2=O | active: 31.6 µM |
| CCC(=O)Nc1ccc(-c2c(-c3ccc(F)cc3)nn(-c3ccc(F)cc3)c2OC(C)=O)cc1 | inconclusive: 31.6 µM [inhibitor, single point] |
| COc1cccc(CN2CCc3c(cc(C(=O)Nc4ccc(F)cc4C)n3C)C2)c1 | inconclusive: 22.4 µM [inhibitor, single point] |
| Cc1ccccc1NC(=O)Cc1nc(COC(=O)c2cccc(C)c2O)cs1 | inconclusive: 39.8 µM [inhibitor, single point] |
| O=C(NC1(c2ccc(F)cc2)CCC1)c1ccccn1 | inactive |
| COc1ccc(-c2[nH]nc3c2C(c2ccc(F)cc2)C2=C(CC(C)(C)CC2=O)N3)cc1 (configuration not stated) | inconclusive: 14.1 µM [inhibitor, partial curve, poor fit] |
| CCN1CCN(c2nc3ccccc3nc2NS(=O)(=O)c2ccc(C)cc2)CC1 | inconclusive: 39.8 µM [inhibitor, single point] |
| Cc1cnc(CC2CCN(C(=O)N(C)C)C2)n1Cc1ccccc1 (configuration not stated) | inactive |
| Cc1ccccc1S(=O)(=O)Cc1ccc(C(=O)N2CCN(c3cccc(Cl)c3)CC2)o1 | inconclusive: 1.12 µM [inhibitor, full curve, poor fit] |
| c1csc(-c2nc(N3CCCC3)c3ccccc3n2)c1 | inactive |
| COCC1CN(S(=O)(=O)Cc2ccccc2)CC12CCNCC2 (configuration not stated) | inactive |
| N#Cc1ccc(-c2cccs2)nc1SCC(=O)Nc1cccc(C(F)(F)F)c1 | inconclusive: 28.2 µM [inhibitor, partial curve, poor fit] |

| SMILES | Potency |
| --- | --- |
| O=C(NCC1Cn2cccc2C(=O)N1Cc1ccccc1)c1n[nH]c(=O)c2ccccc12 (configuration not stated) | inactive |
| CCN(CC)CCOC(=O)c1ccc(NC(=O)c2cc3c(=O)n(CC)c4ccccc4c3s2)cc1 | inconclusive: 2.51 µM [inhibitor, full curve, poor fit] |
| CCn1cc2c(C(F)(F)F)cc(=O)n(CCC(=O)O)c2n1 | inconclusive: 35.5 µM [inhibitor, single point] |
| Cc1ccc(/C=C/C(=O)c2c(C)nc3ccc(Cl)cc3c2-c2ccccc2)o1 | inconclusive: 20 µM [inhibitor, partial curve, poor fit] |
| COc1nc2nc(CCc3ccccc3)n(C)c2cc1-c1ccnc(C)c1 | active: 39.8 µM |
| CCN1CCN(Cc2c(O)ccc3c(C)c(-c4ccc(OC)cc4)c(=O)oc23)CC1 | inconclusive: 25.1 µM [inhibitor, partial curve, poor fit] |
| O=S(=O)(NCCO)c1ccc(Cl)cc1 | inactive |
| COc1ccccc1C1c2c(-c3ccc(Cl)cc3)n[nH]c2C(=O)N1c1ccc(C)cc1 (configuration not stated) | inconclusive: 28.2 µM [inhibitor, single point] |
| O=C(C1=C(O)C(=O)N(CCc2ccccc2)C1c1ccncc1)c1ccco1 (configuration not stated) | inconclusive: 39.8 µM [inhibitor, single point] |
| Fc1ccc(CNc2cc(-c3ccccc3)nc3nncn23)cc1 | inconclusive: 1.26 µM [inhibitor, partial curve, poor fit] |
| CCN1c2cc(C(=O)Nc3ccc(SC)cc3)ccc2C(=O)N2CCCCC21 (configuration not stated) | inconclusive: 28.2 µM [inhibitor, partial curve, poor fit] |
| CC1CCCN(c2ncnc3c2CN(c2ccccc2)C(=O)N(C)C3)C1 (configuration not stated) | inconclusive: 31.6 µM [inhibitor, single point] |
| O=C(Nc1ccc(I)cc1)C1CC2CCC1C2 (configuration not stated) | inactive |
| CNC(C(=O)OC)c1ccc(Cl)c(Cl)c1 (configuration not stated) | inactive |
| Nc1c(C(=O)Nc2ccc(Cl)cc2F)sc2nc(-c3cccs3)ccc12 | inconclusive: 17.8 µM [inhibitor, partial curve, poor fit] |
| Cc1ccc(C)c(NC(=O)Cn2c(=O)n(Cc3cccs3)c(=O)c3cccnc32)c1 | inactive |
| COc1ccc(/C(O)=C/C(=O)C(=O)NNC(=O)c2ccccc2)cc1 | inconclusive: 17.8 µM [inhibitor, partial curve, poor fit] |
| C=CCn1c(SCc2ccc(Cl)cc2)nc2c1c(=O)n(C)c(=O)n2C | inactive |
| CCc1ccc(CNC(=O)Cc2c(C(=O)O)c(C)cn2C)cc1 | inactive |
| COc1ccc(Cl)cc1-n1nnc(C(=O)Nc2ccc3c(c2)C(=O)OC3)c1C | inactive |
| CCC(C)(C)c1ccc(OCCCC[n+]2cccc(C)c2C)c(C(C)(C)CC)c1 | inconclusive: 28.2 µM [inhibitor, single point] |
| O=C(O)CNS(=O)(=O)c1ccc(C(=O)/C=C/c2ccccc2Cl)cc1 | inconclusive: 39.8 µM [inhibitor, single point] |
| Cc1cc(C)c2cc(C(=O)OCC(=O)N3CCCCC3C)[nH]c2c1 (configuration not stated) | inconclusive: 2 µM [inhibitor, full curve, poor fit] |

| SMILES | Potency |
| --- | --- |
| O=C(NCCc1ccccn1)c1ccc(I)cc1 | inactive |
| COc1cccc(NCc2cc(=O)n3[nH]c(-c4ccc(C)cc4)nc3n2)c1 | inactive |
| CC(=O)c1ccc(NC(=O)CSc2ccc3nc(-c4ccccc4)cn3n2)cc1 | inconclusive: 35.5 µM [inhibitor, partial curve, poor fit] |
| COC(=O)[C@@H]1C[C@@H](NC(=O)c2cc(-c3ccc(C)o3)[nH]n2)CN1C | inconclusive: 20 µM [inhibitor, partial curve] |
| C/C(=N/Nc1ccc(S(N)(=O)=O)cc1[N+](=O)[O-])c1cc(Cl)ccc1Cl | inactive |
| O=C(CCCn1c(=O)c2ccccc2n(CC(=O)Nc2ccc(F)cc2F)c1=O)NCc1ccccc1Cl | inconclusive: 15.8 µM [inhibitor, partial curve, poor fit] |
| CC(C)(C)c1ccc(Nc2ccc(C(C)(C)C)cc2)cc1 | inconclusive: 39.8 µM [inhibitor, single point] |
| O=C(Nc1ccc(Cl)cc1)c1nc2c(o1)CCN(Cc1cccc(F)c1F)CC2 | active: 35.5 µM |
| COc1ccc(OC)c(NC(=O)COC(=O)c2ccc(C)s2)c1 | inactive |
| Cc1cn2nc(C(=O)N3CCN(C4CCCCC4)CC3)cc2c(N(C)Cc2ccccc2)n1 | inconclusive: 10 µM [inhibitor, partial curve, poor fit] |
| CCOc1ccc(-c2ccnc(N3CCNC(C)C3)n2)cc1C(=O)O (configuration not stated) | active: 28.2 µM |
| CSc1ncc2ncn(C3OC(CO)C(O)C3O)c2n1 (configuration not stated) | inconclusive: 35.5 µM [inhibitor, single point] |
| COc1ccc(/C=C2\CCCc3c2nc2ccc(C)cc2c3C(=O)O)cc1O | inconclusive: 22.4 µM [inhibitor, single point] |
| O=C(NCc1ccc2c(c1)OCO2)c1nn(-c2ccccc2)c(=O)c2ccccc12 | inconclusive: 39.8 µM [inhibitor, single point] |
| COc1cc(CN2C[C@@H](CO)[C@H](C(=O)NC3CC3)C2)ccc1F | inactive |
| COc1ccc(-c2[nH]ncc2C(=O)N2CC[C@H](CO)[C@H](NC(=O)C3CC3)C2)cc1 | inactive |
| Cc1ccc(S(=O)Cc2nc(-c3ccc(C(=O)NC(C)c4ccccc4)cc3)oc2C)cc1 (configuration not stated) | inconclusive: 28.2 µM [inhibitor, partial curve, poor fit] |
| CCOC(=O)c1[nH]c2ccccc2c1NC(=O)C12CC3CC(CC(C3)C1)C2 | inconclusive: 22.4 µM [inhibitor, partial curve, poor fit] |
| Cc1cccc(NC(=O)CN(C)C(=O)c2cccc(S(=O)(=O)NCC3CCCO3)c2)c1C (configuration not stated) | inactive |
| Cc1c(C(=O)NC[C@H]2C[C@@H]3C=C[C@H]2C3)sc2ncnc(NCCc3ccccn3)c12 | inconclusive: 15.8 µM [inhibitor, partial curve, poor fit] |
| Cn1nc(C(F)(F)F)c(Cl)c1C(=O)Nc1sc2c(c1C#N)CCCC2 | inconclusive: 1.78 µM [inhibitor, partial curve, poor fit] |
